In PubChem BioAssay AID1159614 (National Center for Advancing Translational Sciences (NCATS), 2016):
The whole screen tested about 45,000 compounds, of which about 65 (0.1%) were called active. The call rests on the fitted dose curve; in most records, active means well fitted activation curve with a large enough effect; inconclusive means small, poorly fitted or top-dose-only effect; inactive means no such curve, though single readings can be large or run the other way. Some of the results follow.

Biological target: Galactocerebrosidase (Homo sapiens) (UniProt P54803)
Assay: A Novel Cell-Based Assay to Identify Small Molecules for B -Galactocerebrosidase; further: 0% is about no effect; nearly all actives have a fitted effect of over 65% in size
Conditions: 145M-Twi-hGALC-G270D cells (Twitcher mouse brain line with human GALC G270D), HMU-beta-Gal fluorescence, 48 h; series mostly up to 57.5 µM; activation: at the top concentration
Outline: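 Fluorogenic HMU-b-Gal hydrolysis (0.1 mM final, pH 5.2 citrate-phosphate with 1 mg/mL sodium taurocholate; carbonate stop buffer) measures mutant GALC activity after compound treatment of live 145M-Twi Twitcher brain cells stably carrying human GALC-G270D, with wild-type GALC line alongside; activation sought.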

Chain of UniProt P54803 (P54803 whole entry, looked up): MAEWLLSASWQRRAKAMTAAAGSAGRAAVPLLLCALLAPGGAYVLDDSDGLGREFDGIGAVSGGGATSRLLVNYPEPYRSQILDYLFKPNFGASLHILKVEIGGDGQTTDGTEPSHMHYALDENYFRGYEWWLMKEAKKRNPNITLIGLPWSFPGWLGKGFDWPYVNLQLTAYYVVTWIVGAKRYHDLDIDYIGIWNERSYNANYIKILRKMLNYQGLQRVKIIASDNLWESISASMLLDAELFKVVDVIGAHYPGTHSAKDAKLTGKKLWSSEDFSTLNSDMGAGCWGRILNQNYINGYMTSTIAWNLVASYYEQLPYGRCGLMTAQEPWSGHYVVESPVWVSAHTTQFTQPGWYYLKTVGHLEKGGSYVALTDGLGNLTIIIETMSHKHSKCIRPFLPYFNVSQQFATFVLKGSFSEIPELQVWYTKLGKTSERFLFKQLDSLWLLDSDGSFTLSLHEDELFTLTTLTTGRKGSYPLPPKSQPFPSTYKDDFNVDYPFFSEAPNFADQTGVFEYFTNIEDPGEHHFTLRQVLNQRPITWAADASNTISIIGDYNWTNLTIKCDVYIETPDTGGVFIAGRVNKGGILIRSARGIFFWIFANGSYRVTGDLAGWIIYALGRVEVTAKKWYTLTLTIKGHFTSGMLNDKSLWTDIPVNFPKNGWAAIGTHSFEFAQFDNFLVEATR

activation, inactive:
CC(C)(C)OC(=O)N1CCC(c2c(C(=O)NCCc3ccccc3)cnn2-c2ccc(F)cc2)CC1 -7.16%
CCN(CC)S(=O)(=O)c1ccc(C(=O)N2CC(=O)Nc3ccc(F)cc3C2c2ccccc2)cc1 (stereo unspecified) -5.07%
CCc1ccc(-c2nn(CC(=O)NCc3ccccc3)c3c2cnc2ccc(F)cc23)cc1 -20.6%
COc1ccc(OCC(=O)NCc2ccc3c(c2)CCN3C(=O)c2ccc(F)cc2)cc1 -17%
CC(=O)Nc1ccc2nc(SCCOc3cc(C)cc(C)c3)sc2c1 -29.8%
COc1ccc(CCN2C(=O)NC(NS(=O)(=O)c3ccc(NC(C)=O)cc3)(C(F)(F)F)C2=O)cc1OC (stereo unspecified) -5.78%
COc1cc(NC(=O)c2c(C)oc3c2C2=NCCN2C=N3)cc(OC)c1OC -20.8%
CC(=O)N1c2ccc(S(=O)(=O)NCC3CCC(C(=O)Nc4cc(C)ccc4C)CC3)cc2CC1C (stereo unspecified) 13.5%
CN(C)c1ccc(/C=C(\C#N)c2nc(-c3ccc(Cl)c(Cl)c3)cs2)cc1 -11.8%
COC(=O)c1cc(S(N)(=O)=O)ccc1OC -7.33%
COc1cc(NC(=O)COCc2cc(-c3ccc4c(c3)OCO4)on2)cc(OC)c1 -14.8%
CCn1cc(S(=O)(=O)c2ccccc2)c(=O)c2cc(F)c(N3CCN(c4ccccc4)CC3)cc21 -3.65%
CCN(CC)C(=O)c1sc2c(c1C)c(=O)n(-c1ccc(OC)cc1OC)c(=O)n2CC(=O)c1ccc(Cl)cc1 -16.1%
O=C(Nc1ccc(OC(F)(F)F)cc1)C1CCN(S(=O)(=O)c2cccs2)CC1 -5.38%
COc1cc(NC(=O)c2oc3c(c2C)-c2nn(Cc4cccc(Cl)c4)cc2CC3)cc(OC)c1 -19.4%
CCOc1ccc(N(C(C)C(=O)Nc2cc(Cl)ccc2OC)S(C)(=O)=O)cc1 (stereo unspecified) -11.9%
Cc1ccc(-n2c(=O)c3c(cnn3C)n(Cc3ccccc3F)c2=O)cc1 5.2%
Cc1ccccc1-c1noc(-c2ccc(N3CCOCC3)c([N+](=O)[O-])c2)n1 -18.4%
Cn1c2ccccc2c2cnn(CC(=O)Nc3ccccc3C(F)(F)F)c(=O)c21 0.864%
Cc1ccc(-c2noc(-c3ccccc3NC(=O)C3CC(=O)N(c4ccccc4C)C3)n2)cc1 (stereo unspecified) -3.69%
CCn1ccc2c(OCC(=O)NCc3ccc(F)cc3)cccc2c1=O -9.95%
O=C(NCCc1nc2ccccc2n1Cc1ccc(Cl)cc1Cl)c1ccco1 -8.78%
CC(C)Sc1ncc(Cl)c(C(=O)N(Cc2ccc(N(C)C)cc2)C2CCS(=O)(=O)C2)n1 (stereo unspecified) -5.39%
CCc1nn(CC(=O)Nc2ccc(N(CC)CC)cc2C)c(=O)c2cc3sccc3n12 -19.9%
N#Cc1ccc(C(=O)Nc2ccc3c(c2)N(C2CCCC2)C(=O)c2ccccc2S3)cc1 -7.85%
Cc1ccc(Cn2c(CN3CCC(C(=O)NCCc4ccccc4)CC3)cc3ccccc32)cc1 -12.6%
Cc1cc(C)c2nc(N(Cc3cccnc3)C(=O)c3cccs3)sc2c1 -8.36%
CCOc1ccc(C2C(C(=O)Nc3ccccc3)=C(C)Nc3nc(SCc4cc(C)ccc4C)nn32)cc1 (stereo unspecified) -9.11%
CC(C)Cn1c(=O)c2ccccc2n2c(CCC(=O)NC(C)c3ccccc3)nnc12 (stereo unspecified) -17.8%
COc1ccc(CNC(=O)c2cc(-c3ccc(Br)s3)nc3ccccc23)c(OC)c1 -5.54%
Cc1ccc(-n2ncc(C(=O)Nc3ccc4c(c3)OCCO4)c2C2CCN(C(=O)OC(C)(C)C)CC2)cc1C -11.4%
CC1=C(C(=O)NCc2cccc(F)c2)C2(CCCCCC2)OC1=O -4.53%
COc1ccccc1NC(=O)CC1Sc2ccc(C(F)(F)F)cc2NC1=O (stereo unspecified) -5.84%
CCOc1ccccc1CNC(=O)Cn1c(=O)c2cccn2c2ccc(F)cc21 -17.3%
COc1ccc(Nc2nc3ccc(C)cc3nc2-n2nc(C)cc2C)cc1Cl -8.87%
COc1ccccc1N1CCN(C(=O)Cn2ncc3c2-c2cc(C)ccc2OC3)CC1 -6.81%
COCCN1CCc2nc(SCC(=O)Nc3ccc(C)c(Cl)c3)[nH]c(=O)c2C1 -11.3%
Cc1ccc(OCCSc2nc3ccccc3n2CC(=O)N2CCOCC2)cc1 -28.3%
CC1=C(C(=O)OCc2ccc(C)cc2)C(c2ccccc2C(F)(F)F)CC(=O)N1 (stereo unspecified) 3.38%
CCOc1ccc(C(=O)Nc2ccc3c(c2)CCCN3S(=O)(=O)c2ccc(C)cc2)cc1 -4.21%
CC1CCCCN1Cc1c(O)ccc2c(=O)c(-c3ccc(Cl)cc3)c(C(F)(F)F)oc12 (stereo unspecified) 4.04%
COc1ccc(-c2onc(C)c2C)cc1S(=O)(=O)NCc1cccs1 -5.66%
CCOC(=O)c1noc2ncn(CC(=O)Nc3ccc(F)cc3Cl)c(=O)c12 -18.9%
CCOc1ccc(NC(=O)CSc2nnc3scc(-c4ccccc4)n23)cc1 -1.47%
CCOC(=O)c1sc2ncn(CC(=O)Nc3ccc(F)cc3F)c(=O)c2c1C 5%
COC(=O)c1c(NC(=O)c2ccc(Cl)c(Cl)c2)sc2c1CCCC2 -10.2%
O=C(Nc1ccccc1F)c1cnc(N2CCCCC2)c2ccccc12 -0.968%
O=C1CC[C@@H](C(=O)O)N1 -21.9%
CCc1ccccc1NC(=O)c1cc(-c2ccc(Cl)s2)nc2ccccc12 -9.67%
Cc1oc(-c2ccccc2F)nc1Cn1c(SCc2cccc(C(F)(F)F)c2)nc2ccncc21 -21%
COc1ccc(OC)c(CNC(=O)CCCn2c(=O)c3cccn3c3cccnc32)c1 -10.4%
CCOc1ccccc1NC(=O)Cn1c(=O)n(Cc2ccc(OC)cc2)c(=O)c2oc3ccccc3c21 -17.7%
Nc1cc(C(F)(F)F)ccc1S -14.7%
Cc1cccc(-n2c(C)cc(C(=O)C(=O)Nc3nncs3)c2C)c1 -11.4%
Cc1ccc(O)c(NC(=O)CCS(=O)(=O)c2nc(-c3cccs3)cc(C(F)(F)F)n2)c1 -19.9%
Cc1ccc(C(C)C)c(OCC(=O)Nc2cc(-c3nc4ccccc4[nH]3)ccc2C)c1 -16.5%
Cc1cccc(-n2cnc3cc(C(=O)NCc4ccccc4Cl)ccc32)c1 -13.1%
COc1ccc(N(CC(=O)Nc2cc(OC)cc(OC)c2)S(=O)(=O)c2c(C)noc2C)cc1 17.7%
COc1ccccc1-c1nnc(C2CCN(C(=O)c3ccccc3C)CC2)o1 -6.11%
Cc1cc2c(cc1S(=O)(=O)Nc1ccc(C(C)C)cc1)OCCN2C -3.26%
CCOC(=O)CSc1nc2ccc(NC(=O)c3ccc(Cl)cc3)cc2s1 3.51%
